# In PMC4336329 (PLoS ONE, 2015):
# Screen size: about 310,000 compounds; about 14,000 (4.5%) showed an effect of 50% or more. The effect is printed as a negative number. This is one part of the list.
# Molecular target: human ether-à-go-go-related gene (hERG) potassium channel (human, UniProt Q12809)
# Assay: primary screen, population patch clamp on CHO cells stably expressing hERG
# 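Further: peak tail current of the secondary pulse compared with the same well before compound.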
# Chain of human ether-à-go-go-related gene (hERG) potassium channel (Q12809 whole entry, looked up): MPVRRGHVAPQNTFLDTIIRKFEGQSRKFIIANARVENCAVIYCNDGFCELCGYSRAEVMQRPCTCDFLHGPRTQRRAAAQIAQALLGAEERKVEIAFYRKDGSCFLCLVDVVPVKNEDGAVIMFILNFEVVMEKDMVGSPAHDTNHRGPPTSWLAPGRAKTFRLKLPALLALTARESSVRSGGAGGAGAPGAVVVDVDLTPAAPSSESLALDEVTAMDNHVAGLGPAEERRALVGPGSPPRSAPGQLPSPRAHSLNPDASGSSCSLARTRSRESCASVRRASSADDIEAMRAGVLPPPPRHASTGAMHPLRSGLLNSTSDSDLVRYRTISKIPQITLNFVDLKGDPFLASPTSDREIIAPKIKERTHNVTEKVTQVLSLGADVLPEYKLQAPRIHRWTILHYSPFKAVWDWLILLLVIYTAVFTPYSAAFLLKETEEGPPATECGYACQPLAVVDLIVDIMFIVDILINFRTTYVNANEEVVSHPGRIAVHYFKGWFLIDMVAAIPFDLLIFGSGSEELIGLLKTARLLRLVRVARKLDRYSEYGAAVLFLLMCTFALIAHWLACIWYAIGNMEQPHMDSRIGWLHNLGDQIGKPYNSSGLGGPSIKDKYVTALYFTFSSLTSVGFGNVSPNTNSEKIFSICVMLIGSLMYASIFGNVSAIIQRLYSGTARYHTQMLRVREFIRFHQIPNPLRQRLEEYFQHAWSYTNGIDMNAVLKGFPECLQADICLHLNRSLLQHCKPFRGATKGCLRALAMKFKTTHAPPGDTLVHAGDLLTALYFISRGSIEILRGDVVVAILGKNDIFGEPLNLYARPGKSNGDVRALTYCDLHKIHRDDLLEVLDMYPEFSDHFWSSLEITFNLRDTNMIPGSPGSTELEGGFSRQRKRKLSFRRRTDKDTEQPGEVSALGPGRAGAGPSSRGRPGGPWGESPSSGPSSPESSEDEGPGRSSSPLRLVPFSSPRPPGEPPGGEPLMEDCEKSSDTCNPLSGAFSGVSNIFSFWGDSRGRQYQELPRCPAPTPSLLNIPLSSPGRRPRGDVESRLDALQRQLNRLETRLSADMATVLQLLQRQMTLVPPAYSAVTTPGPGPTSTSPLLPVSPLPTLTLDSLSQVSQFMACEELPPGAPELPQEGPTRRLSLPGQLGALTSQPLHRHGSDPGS
row,SMILES,"hERG current change (%, negative = inhibition) at 10uM [%]"
1,CCC(C(=O)NCc1ccco1)n1nc(-c2ccc(OC)cc2)ccc1=O (centres unmarked),-17.4
2,CN(C)CCOC1c2ccccc2C=Cc2ccccc21.O=C(O)/C=C\C(=O)O,-2.75
3,COc1ccc([N+](=O)[O-])cc1C(=O)NCCOc1ccc(Cl)cc1,6.08
4,O=C(NCC(c1ccco1)N1CCN(c2ccccc2)CC1)C(=O)NC1CCCC1 (centres unmarked),1.33
5,Cc1cc(C)cc(N(C(=O)Cc2cccs2)C(C(=O)NC2CCCCC2)c2ccccn2)c1 (centres unmarked),-24
6,COc1cc(C(=O)NCCN=C2NS(=O)(=O)c3ccccc32)cc(OC)c1OC,11.7
7,Cc1ccc2ccc3ccc(C)nc3c2n1,17.6
8,COC(CNC(=O)c1cn(C)c2ccc(S(=O)(=O)N3CCOCC3)cc2c1=O)OC,16.1
9,CCCC(C(=O)NC1CCCC1)N(CC1CCCO1)C(=O)CNS(=O)(=O)c1ccc(F)cc1 (centres unmarked),-8.24
10,COc1ccc(-c2cnn3cc(-c4cccc(Cl)c4)cnc23)cc1,15.6
11,CNCc1c(OCc2ccc(F)cc2)ccc2ccccc12.Cl,-49.1
12,COc1ccc(CN(C)CC(=O)Nc2ccccc2C(=O)NC2CC2)cc1OC,-21.7
13,CCOc1ccc(N/C(N)=N/c2nc(C)c(C)c(=O)[nH]2)cc1,8.5
14,O=C(c1ccc(F)cc1)c1ccc(CN2C(=O)c3ccccc3C2=O)o1,-28.9
15,COc1ccc(-c2nc3ccccc3c(=O)o2)cc1OC,22.3
16,Cc1cccc(OCC(=O)N2CCC3(CC2)CC(=O)c2ccccc2O3)c1,-54.7
17,O=C(c1ccc(NS(=O)(=O)c2ccccc2)cc1)N1CCN(Cc2ccc3c(c2)OCO3)CC1,-63.8
18,CC1(C2CC2)NC(=O)N(CC(=O)Nc2ccc(C(F)(F)F)cc2)C1=O (centres unmarked),-17.5
19,CN(C)S(=O)(=O)c1ccc(NC(=O)c2cc(F)c(F)cc2Cl)cc1,-17.2
20,COCc1ccc(C(=O)N2CCCC(Nc3ccc(C(C)C)cc3)C2)o1 (centres unmarked),-0.274
21,Cc1nc2ccccc2n1C(=O)c1ccccc1[N+](=O)[O-],-8.22
22,COc1ccc(C(=O)NNS(=O)(=O)c2ccccc2)cc1OC,13.3

row,SMILES,"hERG current change (%, negative = inhibition) at 10uM [%]"
1,Cc1cc(C)cc(OCc2nnc(SCC(=O)OC3CCCCC3)o2)c1,1.89
2,O=C(CCNS(=O)(=O)c1ccc(Br)cc1)NCc1ccc(F)cc1,-4.89
3,COCCCNC(=O)CSC1=Nc2ccccc2C2=NC(Cc3c[nH]c4ccccc34)C(=O)N12 (centres unmarked),9.79
4,COc1cccc(C(C(=O)NC2CCCC2)N(Cc2cccnc2)C(=O)Cc2cccs2)c1 (centres unmarked),-5.67
5,O=C(Nc1nncs1)c1cccc(S(=O)(=O)N2CCCC2)c1,1.94
6,C=CCn1c(SC(C)C(=O)NC2(C#N)CCCCC2)nnc1-c1ccc(OC)cc1 (centres unmarked),-22
7,CCOC(=O)c1c(NC(=O)COC(=O)c2cnc(C)cn2)sc(C(=O)N(C)C)c1C,6.63
8,Cc1nnc(NC(=O)c2nn(CC(C)C)c(=O)c3ccccc23)s1,26.6
9,CC(=O)Nc1ccc(NC(=O)CSc2ncnn2-c2ccccc2)cc1,-2.05
10,Brc1ccc(Nc2ncnc3[nH]ncc23)cc1,-8.01
11,O=C(C1CCCN(Cc2cccs2)C1)N1CCCCCC1.O=C(O)C(=O)O (centres unmarked),-5.31
12,CCOC(=O)c1[nH]c2ccc(OC)cc2c1NC(=O)c1ccc2c(c1)OCO2,17.1
13,CC(C)CCOC(=O)C1[C@H]2C(=O)N(Cc3cccs3)C[C@]23C=C[C@H]1O3 (some centres unmarked),13.8
14,O=C(CN(C(=O)c1csnn1)c1cccc2c1CCCC2)NCc1ccc(F)cc1,-57.7
15,CCC/C=C1/CCCOC(C(=O)NCc2ccccn2)(C(F)(F)F)C1 (centres unmarked),-7.21
16,O=C(O)/C=C\C(=O)Nc1ccccc1C(=O)NCc1ccccc1,19.3
17,Cc1nc(-c2ccccc2)c(-c2ccccc2)[nH]1,-45.2
18,COc1ccc2oc(=O)c(C(=O)N3CCN(c4ccccc4F)CC3)cc2c1,-9.25
19,O=C(c1ccccc1)N(C(=O)c1ccccc1)c1ncnc2c1C(c1ccccc1)c1c(ccc3ccccc13)O2 (centres unmarked),0.221
20,O=C(N/N=C/c1cccs1)[C@H]1C[C@@H]1c1ccccc1,-7.99
21,CCOC(=O)c1cnc2ccc(F)cc2c1Nc1ccc2c(c1)OCCO2,-2.79
22,C/C(CC(=O)Nc1cc(C)cc(C)c1)=N\NC(=O)c1ccccn1,-2.5

row,SMILES,"hERG current change (%, negative = inhibition) at 10uM [%]"
1,Cc1csc(C(C)N(C)C(=O)c2ccc(OC3CCN(Cc4ccccn4)CC3)cc2)n1 (centres unmarked),-12
2,Cc1cccc(C(=O)N/C(=C\c2ccco2)C(=O)N2CCCC2)c1,-18.6
3,COc1ccc(NS(=O)(=O)c2cc3c(cc2C)N(C(C)=O)CCO3)c(OC)c1,0.0351
4,Cc1ccc(C(=O)OCC(=O)N(C)c2c(N)n(Cc3ccccc3)c(=O)[nH]c2=O)s1,-1.22
5,CC1(C)CC(=O)C2=C(C1)Oc1ncn(CCCn3ccnc3)c(=N)c1C2c1ccccc1 (centres unmarked),-53.3
6,Cc1ccc(S(=O)(=O)N2CCN(C(=O)c3ccco3)CC2)cc1C,-4.01
7,CCOC(=O)c1ccc2nc(NC(=O)C(C)C)sc2c1,-9.04
8,O=C(CSCSCC(=O)NCC1CCCO1)NCC1CCCO1 (centres unmarked),9.83
9,COc1cc(NC(=O)c2[nH]c(C)c(C(C)=O)c2C)cc(OC)c1OC,4.94
10,CC1(c2nnc(Cc3ccccc3)o2)CC(c2ccccc2)=NO1 (centres unmarked),-18
11,COc1ccccc1CC(NC(C)=O)C(=O)NC1CCN(C(=O)c2ccc(C)cc2)CC1 (centres unmarked),3.31
12,CCN(c1cccc(C)c1)S(=O)(=O)c1ccc2c(c1)CCCN2C(C)=O,-19.3
13,CCOC(=O)N1CCN(C(c2cccc(OC)c2)c2sc3nc(C)nn3c2O)CC1 (centres unmarked),3.01
14,O=C(c1nc2ccccn2c1CN1CCC(Cc2ccccc2)CC1)N1CCCC1,-70.7
15,COC(=O)c1ccccc1-n1c(CCC(=O)O)ccc1-c1ccccc1,0.715
16,Cc1ccc(CN2CCN(CC(=O)NCCCN3CCN(c4ccc(F)cc4)CC3)C2=O)cc1,-66
17,CCOC(=O)c1nnn(-c2nonc2N)c1CS(=O)(=O)c1ccccc1,-4.97
18,Oc1ccccc1CNc1cccc2cccnc12,8.2
19,C#CCNC(=O)c1cc2sccc2n1C,-4.02
20,O=C(CN(Cc1ccc(Br)cc1)S(=O)(=O)c1ccccc1)NCc1cccnc1,-17.2
21,Cc1cccc(N(Cc2cc3ccccc3[nH]c2=O)C(=O)c2ccco2)c1C,4.51
22,Cc1ccc2[nH]c(=O)c(CN(CCCN3CCOCC3)Cc3nnnn3C3CCCC3)cc2c1,-54.5

row,SMILES,"hERG current change (%, negative = inhibition) at 10uM [%]"
1,CC(=O)NC1=NN(C(C)=O)C(C)(CS(=O)(=O)c2ccc(Cl)cc2)S1 (centres unmarked),5.79
2,Cc1ccc(N(CC(=O)N/N=C/c2cccnc2)S(=O)(=O)c2ccccc2)cc1,-52
3,Cc1ccc2c(c1)NC(=O)C(CC(=O)NCCCN1CCCC1)O2 (centres unmarked),12.6
4,CS(=O)(=O)Nc1ccc(OCc2ccccc2)cc1,2.82
5,O=C(c1cc2ccccc2oc1=O)N1CCOCC1,6.33
6,O=C(COc1ccccc1)Nc1nc2c(s1)CCCC2,-20.3
7,Cl.O=C(NCCCNCc1ccccc1)c1ccncc1,-5.26
8,Cc1cc(/C=N/NC(=O)c2cccc([N+](=O)[O-])c2)c(C)n1-c1ccccc1,8.99
9,CCOC(=O)c1noc(C)c1C(=O)Nc1cccc(F)c1,-8.49
10,O=C(NCc1cccnc1)C1CC(=O)N(CCc2ccccc2)C1 (centres unmarked),-11.9
11,CCOC(=O)c1c(C(F)(F)C(F)(F)C(F)(F)C(F)(F)F)n[nH]c1C,-1.89
12,Fc1cccc(Nc2nc3ccccc3n3cnnc23)c1,4.55
13,COc1ccc(Cl)cc1NC(=O)CN(C)C(=O)COc1ccccc1F,-21.6
14,O=C(CN1C(=O)NC2(CCCCCC2)C1=O)NC1CC1,12.5
15,CCOC(=O)c1c(NC(=O)COC(=O)c2ccccn2)sc(C(=O)N(C)C)c1C,4.44
16,CC(=O)N1c2ccc(S(=O)(=O)N3CCCC(C(=O)Nc4cc(C)cc(C)c4)C3)cc2CC1C (centres unmarked),6.85
17,CCOc1ccc(CN2CCN(Cc3[nH]c4ccc(OC)cc4c3C)CC2CCO)cc1 (centres unmarked),-77.9
18,O=C(CNC(=O)c1ccccc1Br)N/N=C/c1ccco1,16.3
19,CCOC(=O)Cn1nc(C)n(-c2ccc(Cl)cc2)c1=O,10.4
20,COc1ccc(OC)c(NC(=O)CN(Cc2ccc(Cl)cc2)S(C)(=O)=O)c1,-28.3
